Measurements: PubChem BioAssay AID1240 (Sanford-Burnham Center for Chemical Genomics, 2008)
Out of some 50,000 compounds screened, about 800 (1.6%) showed an effect of 50% or more. Some of the results follow.

Target: Bcl-2-like protein 10 (Homo sapiens) (UniProt Q9HD36)
Assay: Phenotype converters, Bcl-B/TR3 peptide binding displacement, primary biochemical FP (AID 1240);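 further: 0% = Bcl-B with tracer peptide and DMSO and 100% = tracer peptide lacking Bcl-B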
Conditions: GST-Bcl-B / FITC-TR3 peptide fluorescence polarization; stronger effect = higher value; compound at 3.75 mg/L

Chain of UniProt Q9HD36 (Q9HD36 whole entry, looked up): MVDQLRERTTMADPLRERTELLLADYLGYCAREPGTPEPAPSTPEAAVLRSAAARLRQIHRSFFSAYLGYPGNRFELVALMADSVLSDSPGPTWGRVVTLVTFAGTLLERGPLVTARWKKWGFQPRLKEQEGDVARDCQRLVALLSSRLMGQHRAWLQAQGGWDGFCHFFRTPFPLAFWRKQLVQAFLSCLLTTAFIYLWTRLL

Row | Compound | displacement [%]
1 | O=C(Nc1cccnc1)c1ccccc1Oc1ccccc1 | -6.7
2 | COC(=O)c1c(NC(=O)c2ccco2)sc2c1CCC2 | 91.1
3 | O=C(CCN1CCCCC1)Nc1c(-c2ccccc2)c2cc(Br)ccc2[nH]c1=O | 2.3
4 | Cc1ccc(C2=C/C(=C\c3ccc(-c4ccccc4C(=O)O)o3)C(=O)O2)cc1 | 13.6
5 | COc1ccc(NC(=O)C2=C(C)NC(=O)NC2c2ccc(OC)cc2)cc1 (stereo not given) | 1
6 | O=C1C2C(c3ccccc3Cl)OC3(C(=O)c4ccccc4C3=O)C2C(=O)N1c1cccc(C(F)(F)F)c1 (stereo not given) | 7.7
7 | Cc1cccc(N2CCN(C(=O)c3cccs3)CC2)c1C | 0.3
8 | O=C1S/C(=C/c2ccccc2F)C(=O)N1CNc1ccccc1Br | 11.8
9 | CN(c1ccccc1)c1ccc(C=C2C(=O)NC(=O)NC2=O)cc1 | 19.6
10 | C=CCN1C(=O)/C(=C\c2ccc(N(C)C)cc2)SC1=Nc1ccccc1 | 7.3
11 | COc1cc(/C=C2\SC(=S)N(CC(=O)O)C2=O)cc(OC)c1OC | -4
12 | O=C(Nc1ccc2c(c1)oc1ccccc12)c1cccc(C(F)(F)F)c1 | -6.8
13 | COc1ccc(Br)cc1CN1CCN(Cc2ccc(OC)c(OC)c2OC)CC1 | -17.1
14 | O=C(NC(=S)Nc1ccc2oc(-c3ccc(Cl)cc3)nc2c1)c1ccco1 | 13
15 | CN1C(=O)/C(=C2\SC(=O)NC2=O)c2cc(Br)ccc21 | -3.8
16 | O=C(/C=C/c1ccc(-c2ccc(Cl)cc2Cl)o1)Nc1cccnc1 | 0
17 | O=C(NN=C1CCN(Cc2ccccc2)CC1)c1sc2ccccc2c1Cl | -3.4
18 | Cc1ccc(/C=C/C(=O)N2CCN(C/C=C/c3ccccc3)CC2)o1 | -3.7
19 | O=C(CSc1nc2ccccc2[nH]1)Nc1nc2ccccc2s1 | 6.1
20 | CCn1cc(/C=C2/C(=O)NN(c3ccccc3)C2=O)c2ccccc21 | 13.1
21 | CCOc1ccccc1N(CC(=O)N1CCOCC1)S(=O)(=O)c1ccccc1 | -10.5
22 | COc1ccc(-c2cc(-c3ccccc3O)[nH]n2)cc1OC | 11
23 | COc1ccc(C2CC(=O)C3=C(C2)Nc2ccccc2NC3c2cc(OC)c(OC)cc2OC)cc1 (stereo not given) | 15.9
24 | CC(=O)Nc1ccc(OCC=C(Cl)Cl)cc1 | 5.9
25 | COc1ccc(NC(=O)c2ccc3ccccc3n2)cc1 | -14.2
26 | O=C(/C=C/c1ccc2c(c1)OCO2)NCc1ccc2c(c1)OCO2 | 0.1
27 | CCOc1ccc(N=Cc2cccc(C)c2O)cc1 | 9.6
28 | O=C(Nc1sc2c(c1C(=O)NCCc1ccccc1)CCCCC2)c1ccccc1F | 12.4
29 | NC(=O)c1cc(NC(=O)c2cccc(F)c2)c(Cl)cc1Cl | 9.6
30 | Cc1cccc(Cc2cnc(NC(=O)CCN3C(=O)/C(=C/c4ccccc4Cl)SC3=S)s2)c1 | -7
